Molecules are shown by their SMILES. In all, about 52,000 compounds went through this assay and about 4,300 (8.3%) were called active. Rule as the data show it: active = survival mostly below about 52% (no sharp cut-off); inactive = mostly above about 56%. This is one part of the list.

These results are taken from PubChem BioAssay AID463173 (ICCB-Longwood Screening Facility, Harvard Medical School, 2010).

In the assay the test system is DeltatarO mutant. In words: growth inhibition of S. aureus wild type versus tarO mutant, primary screen, teichoic acid synthesis inhibitors, RN4220, OD600 (AID 463173). The note with it: OD600, 18 h, stronger effect = lower value, screened at 18.75 µg/mL (by protocol).
Consider `Cc1cccn2c3c(c(=O)nc12)C(c1cccc(F)c1)CC(=O)N3` (stereo unspecified), for which the survival was inactive: 58%.

In the case of `CCC1CCCCN1Cc1c(O)ccc2c(=O)c(Oc3ccccc3Cl)c(C(F)(F)F)oc12` (stereo unspecified), the survival is inactive: 61%.

Take `Cc1oc2ncn(CC(C)C)c(=O)c2c1C(=O)NCCc1ccc(Cl)cc1`: the survival is inactive: 85%.

For the compound `Cc1ccc(CNC(=O)c2ccc3c(c2)CCN3S(=O)(=O)c2ccccc2)cc1`, the survival is active: 37%.

Consider `Cc1ccc2c(CC(=O)Nc3cccc(C(F)(F)F)c3)coc2c1`, for which the survival was active: 1%.

For `CC1(C)Cc2c(c(N3CCOCC3)nc3sc(C(=O)Nc4ccc(Cl)cc4)c(N)c23)CO1`, the survival was inactive: 77%.

In the case of `Cc1cccc(NC(=O)CSc2nc(-c3cccc(C)c3)nc3c2Cc2c(CO)cnc(C)c2O3)c1`, the survival was inactive: 97%.

For the compound `CCOc1ccc(S(=O)(=O)Nc2cccc(-c3ccc(N4CCCC4)nn3)c2)cc1`, the survival was inactive: 120%.

With `CCc1nc2ccc(C(=O)NCc3ccc(OC)c(OC)c3)cc2nc1CC`, the survival was inactive: 74%.

Regarding `c1coc(CNc2ncnc3sc4c(c23)CCCC4)c1`, the survival was inactive: 107%.

For the compound `Cc1ccc2c(c1)-c1onc(C(=O)N(C)c3cccc(C(F)(F)F)c3)c1CO2`, the survival was inactive: 108%.

On to `Cc1ccccc1CNC(=O)Cn1c(C)c2cnn(-c3ccccc3)c(=O)c2c1C`, for which the survival was inactive: 102%.

In the case of `CCCCOc1ccc(C(=O)Nc2cc(-c3ccc(C)cc3)no2)cc1`, the survival was inactive: 79%.

Regarding `CCOC(=O)c1sc(N2C(=O)c3oc4ccccc4c(=O)c3C2c2ccc(C(C)(C)C)cc2)nc1C` (stereo unspecified), the survival was active: 51%.

On to `CCOC(=O)COc1ccc(/C=C(\C#N)c2nc3ccc(C)cc3[nH]2)cc1OC`, for which the survival is active: 43%.

As for `Cc1cccc(NC(=O)CC2Nc3cccc4cccc(c34)NC2=O)c1` (stereo unspecified), the survival was inactive: 64%.

Take `COC(=O)c1cc2oc(C)cc2n1Cc1cc(C)ccc1C`: the survival was active: -9%.

`Cc1ccc(C)c(NC(=O)Cn2ncc3c([nH]c4ccccc43)c2=O)c1`: the survival is inactive: 63%.

On to `CCOc1ccc(NC(=O)CSc2nc(-c3cccc(Cl)c3)nc3c2Cc2c(CO)cnc(C)c2O3)cc1`, for which the survival is inactive: 55%.

On to `CCc1nc(N=C(N)N)nc2ccc(C)cc12`, for which the survival was inactive: 58%.

Consider `Cc1ccc(C)c(NC(=O)CSc2c(C)cnc3c2c(=O)n(C)c(=O)n3C)c1`, for which the survival was inactive: 79%.

On to `O=C(Cn1cnc2nc3c(cc2c1=O)CCCC3)N1CCN(c2cccc(C(F)(F)F)c2)CC1`, for which the survival is inactive: 55%.

Consider `CCC(=O)N1c2ccccc2CC1C(=O)N1CCN(c2cccc(OC)c2)CC1` (stereo unspecified), for which the survival was inactive: 66%.

Turning to `COc1ccc(Cn2c(C(=O)O)c(CNC3CCCC3)c3ccc(C)cc32)cc1`, the survival is inactive: 79%.

Consider `CC(=O)c1ccc(S(=O)(=O)Nc2ccc(-c3ccc(N4CCCCC4)nn3)cc2)cc1`, for which the survival is inactive: 81%.

For the compound `Cc1ccc(N(C)C(=O)CC(C)S(=O)(=O)c2ccc3c(c2)NC(=O)CO3)cc1` (stereo unspecified), the survival was inactive: 120%.

Take `CCc1ccc(NC(=O)Cn2ccn(-c3ccc(OC)cc3)c(=O)c2=O)cc1`: the survival is inactive: 67%.

For `CCCOC(=O)C1=C(C)OC23OC(N)=C(C#N)C12C(=O)c1ccccc13` (stereo unspecified), the survival is inactive: 80%.

Turning to `Cc1ccc(-c2nnc(Nc3cccc(Br)c3)c3ccccc23)cc1S(=O)(=O)N1CCCCC1`, the survival was inactive: 70%.

`CCc1ccc(CN(Cc2ccco2)C(=O)COc2ccccc2Cl)cc1`: the survival was inactive: 51%.

As to `COCC(C)NCc1cc(F)ccc1F` (stereo unspecified), the survival was inactive: 64%.

Regarding `O=C(c1ccco1)N1CCN(c2c3c(nc4cc(-c5cccc(F)c5)nn24)CCCC3)CC1`, the survival was inactive: 70%.

With `Cc1cccc(-n2c(=O)c3c(c4cc(C)ccc4n3C)n(C)c2=O)c1`, the survival was inactive: 67%.

As to `Cc1c(Cl)cccc1NC(=O)N1CCC(CN2CCOCC2)CC1`, the survival was inactive: 77%.

As to `Cc1ccc(C)c(C(=O)CSc2nc(-c3ccccc3)nc3c2CCCC3)c1`, the survival was active: 2%.

In the case of `CCCCN1C(=O)CN(C2CCCCCC2)C(=O)C1c1ccc(OCC)c(OC)c1` (stereo unspecified), the survival is inactive: 95%.

In the case of `COCCN(Cc1ccco1)C(=O)Cn1ncc2c([nH]c3ccccc32)c1=O`, the survival was inactive: 92%.

As to `O=c1c2c(nc3cc(-c4cccc(Cl)c4)[nH]n13)CCCC2`, the survival is inactive: 86%.

`Cc1cc2c(cc1S(=O)(=O)CCC(=O)N(C)C1CCCCC1)OCC(=O)N2`: the survival was inactive: 89%.

As to `CN1CCc2c(sc3nc(=S)[nH]c(N)c23)C1`, the survival was inactive: 92%.

Take `Cc1ccc(-c2nnn3c2nc(NCCc2ccccc2)c2ccccc23)cc1`: the survival is inactive: 112%.

On to `CN(c1ncnc2c1c(-c1ccccc1)cn2-c1cccc(Cl)c1)C1CCCCC1`, for which the survival was inactive: 83%.

As to `COc1cccc(NC(=O)CCc2nc(-c3ccc(C(C)(C)C)cc3)no2)c1`, the survival is inactive: 85%.

Turning to `CCCCn1c(=O)c2oc3ccccc3c2n(Cc2ccc(OC)cc2)c1=O`, the survival is inactive: 104%.

With `Cc1cc(C)cc(NC(=O)c2cn3c4c(ccc(Cl)c4c2=O)OC(C)C3)c1` (stereo unspecified), the survival is inactive: 91%.

Regarding `CCOC(=O)CCSc1nc(C)cc(C(F)(F)F)c1C#N`, the survival is inactive: 88%.

On to `COc1ccccc1CNC(=O)c1ccc(-c2nc(CS(=O)c3ccc(C)cc3)c(C)o2)cc1` (stereo unspecified), for which the survival was inactive: 119%.

`COc1ccc(S(=O)(=O)Nc2ccc3c(c2)sc(=O)n3C)cc1Cl`: the survival was inactive: 122%.

With `Cc1cccc2cc(CN(Cc3ccco3)C(=O)c3ccccc3)c(=O)[nH]c12`, the survival was inactive: 95%.

Take `O=C(c1ccc([N+](=O)[O-])cc1)N(Cc1ccco1)c1ccccn1`: the survival was inactive: 56%.

With `CC(=O)OCc1cnc(C)c2oc(=O)c(C(=O)Nc3cc(F)ccc3C)cc12`, the survival is inactive: 171%.

Take `CCOc1ccccc1NC(=O)C1CCCN(c2ncnc3onc(-c4ccc(F)cc4)c23)C1` (stereo unspecified): the survival is inactive: 85%.

For the compound `CC(C)C(=O)Nc1nnc(S(=O)(=O)N(C)Cc2ccc(F)cc2)s1`, the survival is inactive: 94%.

On to `COc1ccc(NC(=O)C2CCN(S(=O)(=O)c3cn(C)cn3)CC2)cc1Cl`, for which the survival was inactive: 69%.

For `O=C(NC1=NCCS1)c1ccccc1`, the survival was inactive: 101%.

On to `O=S1(=O)CCC(NCc2ccccc2)C1` (stereo unspecified), for which the survival is inactive: 89%.

`NC(=O)CN1C(=O)C2(SCC(=O)N2c2cccc(F)c2)c2ccccc21` (stereo unspecified): the survival was inactive: 78%.

As to `Cc1ccc(NC(=O)CSc2nnc(COc3ccc(Cl)cc3)o2)cc1`, the survival is inactive: 49%.

As to `COc1ccc(C2C(C(=O)Nc3ccc(C)cc3C)=C(C)Nc3nc(SC)nn32)cc1OC` (stereo unspecified), the survival is inactive: 108%.

As for `COC(=O)c1cc2c(ccn2-c2ccc(F)cc2)n1Cc1ccccc1`, the survival is inactive: 98%.

As to `Cc1ccccc1-c1nc(SCC(=O)NCc2ccc(F)cc2)c2c(=O)n(C)c(=O)n(C)c2n1`, the survival was inactive: 94%.

Take `O=C(Oc1ccccc1)C1C2CCCCC21` (stereo unspecified): the survival was inactive: 104%.

`O=C(CSc1oc(-c2ccccc2)nc1S(=O)(=O)c1ccc(Br)cc1)c1ccccc1`: the survival is inactive: 58%.

As for `COc1ccc(C)cc1NC(=O)COc1cc(=O)n(C)c2ccccc12`, the survival was inactive: 90%.

Regarding `CCc1ccc(NC(=O)CN(C)S(=O)(=O)c2ccc3c(c2)c(=O)n(C)c(=O)n3C)cc1`, the survival is inactive: 133%.

With `COc1ccc(NC(=O)c2ccco2)cc1NC(=O)COc1cccc(C)c1C`, the survival is inactive: 55%.

`Cc1ccc(NC(=O)c2nnn(Cc3ccccc3)c2N)cc1C`: the survival was inactive: 73%.

In the case of `CCOC(=O)c1cc2c(=O)n3ccccc3nc2n(Cc2ccco2)c1=NC(=O)c1ccc(Br)cc1`, the survival was inactive: 55%.

`CCOC(=O)/C(C#N)=C/c1ccc(-c2ccc(Cl)c(C(=O)OC)c2)o1`: the survival is inactive: 92%.

For the compound `Cc1cc(-c2ccc(C)c(S(=O)(=O)Nc3cccc(C)n3)c2)on1`, the survival is inactive: 75%.

Turning to `CC(=O)Nc1ccc(NC(=O)c2cc(=O)c3ccccc3o2)cc1`, the survival was inactive: 59%.

Turning to `CCc1ccc(-n2nnc(-c3nsc(NC(=O)c4ccccc4Cl)n3)c2C)cc1`, the survival is active: 15%.

With `CCn1c(CNc2nc(-c3ccccc3)cs2)nnc1SCC(=O)c1ccc(OC)cc1`, the survival was inactive: 87%.

In the case of `O=C(O)C(CO)NS(=O)(=O)c1ccc(F)cc1` (stereo unspecified), the survival is inactive: 65%.

On to `Cc1ccc2c(c1)N(C(=O)N1CCC(C(=O)NCc3cccc(Br)c3)CC1)CCO2`, for which the survival was inactive: 74%.

Consider `COc1ccc(-c2nc(-c3cc4cc(Br)ccc4oc3=O)cs2)cc1`, for which the survival is inactive: 78%.

For the compound `COc1ccccc1N1CCN(c2nc3ccccc3n3cnnc23)CC1`, the survival was inactive: 73%.

For `O=C(CCn1nc(-c2ccccc2)c2ccccc2c1=O)Nc1ccccc1`, the survival is inactive: 69%.

With `Cc1ccc(-n2nc(CO)c(C(=O)NCc3ccccn3)n2)cc1`, the survival was inactive: 89%.

As for `Cc1ccc2nc(N(CCCN(C)C)C(=O)c3ccco3)sc2c1`, the survival is inactive: 82%.

Regarding `O=C1Nc2ccccc2Oc2cc(Oc3cccc(Cl)c3)ccc21`, the survival was inactive: 46%.

On to `Cc1cc(C)c(S(=O)(=O)N2CCC(n3c(C(F)(F)F)nc4cccnc43)CC2)c(C)c1`, for which the survival is inactive: 79%.

In the case of `Cc1nc2nc(SCC(=O)N(C)Cc3ccccc3)nn2c(C)c1Cc1ccccc1Cl`, the survival is inactive: 60%.

As for `Cc1nnc(N2CCCC(C(=O)NCc3ccccc3)C2)c2nn(-c3ccccc3)c(C)c12` (stereo unspecified), the survival is inactive: 90%.

As to `CCCCN(C)CCNC(=O)C1CCCN(S(=O)(=O)c2cccc3nsnc23)C1` (stereo unspecified), the survival is inactive: 96%.

In the case of `Cc1c(Cl)cccc1-c1ccc(CNCCCSc2nnnn2C)o1`, the survival is inactive: 64%.

In the case of `CCc1ccc(S(=O)(=O)c2cn(C)c3cc(N4CCOCC4)c(F)cc3c2=O)cc1`, the survival is inactive: 90%.

On to `CCOC(=O)c1cc(-c2ccccc2)n(CCC(=O)NCc2ccccc2Cl)c1C`, for which the survival is inactive: 83%.

`COC(=O)c1sc2cccc(F)c2c1S(=O)(=O)N1CCN(c2cccc(OC)c2)CC1`: the survival was inactive: 85%.

Consider `COc1ccc(Nc2nc3ccccc3nc2NS(=O)(=O)c2ccc(C)cc2)c(OC)c1`, for which the survival was inactive: 63%.

Regarding `O=C(COc1ccccc1F)OCc1cc(=O)n2nc(C3CCCCC3)sc2n1`, the survival is inactive: 92%.
